# Article PMC4336329 (PLoS ONE, 2015)
# Screen size: about 310,000 compounds; about 14,000 (4.5%) showed an effect of 50% or more. Effects have a minus sign here. The list shows a part of the results.
# Target: human ether-à-go-go-related gene (hERG) potassium channel (human, UniProt Q12809)
# Assay: primary screen, population patch clamp on CHO cells stably expressing hERG
# 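Also: peak tail current of the secondary pulse compared with the same well before compound.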
# Sequence of human ether-à-go-go-related gene (hERG) potassium channel (Q12809 whole entry, looked up): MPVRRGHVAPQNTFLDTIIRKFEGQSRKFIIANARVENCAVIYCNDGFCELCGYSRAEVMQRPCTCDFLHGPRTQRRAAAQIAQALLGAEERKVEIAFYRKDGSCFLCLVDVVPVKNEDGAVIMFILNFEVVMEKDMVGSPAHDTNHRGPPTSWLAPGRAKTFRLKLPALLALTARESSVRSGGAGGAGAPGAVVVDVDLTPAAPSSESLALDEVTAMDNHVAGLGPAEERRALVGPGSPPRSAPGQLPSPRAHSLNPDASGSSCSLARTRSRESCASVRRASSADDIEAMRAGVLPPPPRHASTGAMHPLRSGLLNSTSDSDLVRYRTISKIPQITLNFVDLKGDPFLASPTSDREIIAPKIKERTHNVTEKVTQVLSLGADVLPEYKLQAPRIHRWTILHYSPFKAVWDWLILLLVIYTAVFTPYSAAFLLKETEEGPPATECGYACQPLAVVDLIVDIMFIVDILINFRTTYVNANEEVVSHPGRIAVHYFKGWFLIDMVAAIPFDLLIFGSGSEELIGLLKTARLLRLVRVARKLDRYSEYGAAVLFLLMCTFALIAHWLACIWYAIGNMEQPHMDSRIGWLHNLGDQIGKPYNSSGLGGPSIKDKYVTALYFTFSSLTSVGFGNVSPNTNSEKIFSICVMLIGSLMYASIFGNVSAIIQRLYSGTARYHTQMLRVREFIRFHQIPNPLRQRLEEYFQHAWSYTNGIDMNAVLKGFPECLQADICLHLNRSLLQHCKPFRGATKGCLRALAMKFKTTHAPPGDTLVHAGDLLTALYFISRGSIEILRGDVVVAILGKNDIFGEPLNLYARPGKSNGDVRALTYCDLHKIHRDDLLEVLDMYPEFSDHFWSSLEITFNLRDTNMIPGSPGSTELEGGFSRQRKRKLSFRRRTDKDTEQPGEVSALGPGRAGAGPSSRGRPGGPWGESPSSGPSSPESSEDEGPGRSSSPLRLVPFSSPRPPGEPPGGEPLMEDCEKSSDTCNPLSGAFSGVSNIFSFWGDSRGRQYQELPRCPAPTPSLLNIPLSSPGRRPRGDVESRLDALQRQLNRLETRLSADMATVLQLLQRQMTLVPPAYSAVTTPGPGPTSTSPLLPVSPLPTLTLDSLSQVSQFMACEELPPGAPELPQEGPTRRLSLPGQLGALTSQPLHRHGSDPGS
row,SMILES,"hERG current change (%, negative = inhibition) at 10uM [%]"
1,O=C(Cn1c2c(sc1=O)C1c3ccccc3OCC1CS2)Nc1ccc(Cl)cc1 (stereo not shown),16.3
2,O=C(Nc1cccc(Cl)c1)ON=C1c2ccccc2-c2ccccc21,-23.6
3,COc1ccccc1-c1noc2ncnc(Nc3ccccc3C)c12,-43.2
4,O=C(Nc1nc(-c2ccc(F)c(F)c2)cs1)c1cc([N+](=O)[O-])ccc1N1CCOCC1,7.34
5,CCn1c(Cc2cccs2)nnc1SCC(=O)NC1CC1,-1.49
6,CC1CCN(c2ccc(C(=O)Nc3ccc4c(c3)OCO4)cc2[N+](=O)[O-])CC1,7.17
7,COc1ccccc1-n1cc([C@@H]2C[C@H]3CN(c4ccccc4)C(=O)[C@]34CCCN24)cn1,-17.1
8,CC(=O)NCCc1nc2cc(NC(=O)c3cccc([N+](=O)[O-])c3)ccc2n1C,19.2
9,O=C(CCCCCN1C(=O)c2ccccc2C1=O)NCc1ccco1,-8.6
10,Cc1nnc(NC(=O)CCNC(=O)c2ccccc2Cl)s1,28
11,CC(=O)Nc1ccc(S(=O)(=O)N2CCN(CCCOc3cc(C)ccc3C)CC2)cc1,-40.2
12,COc1cccc(CNC(=O)CCN2C(=O)[C@@H]3Cc4ccccc4CN3C2=O)c1,7.5
13,O=c1cc(NS(=O)(=O)c2ccccc2)nc(SCc2c(Cl)cccc2Cl)[nH]1,22.4
14,Cc1ccc(/C=C/c2nnc(-c3ccccc3)o2)cc1,2.67
15,O=C(COc1ccc(Cl)cc1Cl)N1CCNC1=O,-16.7
16,O=C(NCCSc1ccccc1)c1ccccc1F,5.32
17,CCN(CC)S(=O)(=O)c1cccc(-c2nnc(SCc3ncc(-c4ccccc4)o3)n2C)c1,-68.2
18,COc1ccc2c(c1)C1(C)CC(C)(C)N2C(=O)N1c1ccccc1 (stereo not shown),4.35
19,Cc1ccc(S(=O)(=O)N(C)c2ccc(C(=O)Nc3cccnc3)cc2)cc1,8.9
20,C/C(CC(=O)Nc1ccc(Cl)c(Cl)c1)=N\NC(N)=S,19.3
21,CCC12C(=O)C(CC)(C(c3ccccc3)=C1c1ccccc1)[C@@H]1C(=O)N(c3ccccc3)C(=O)C12 (stereo partly shown),5.32
22,NC(=O)CSc1nnc(C2CC2)n1-c1ccccc1,20.9
23,COC(=O)CCc1c(C)nn(-c2ccccc2)c1C,-1.68
24,CCc1c(C)nc(N2CCN(c3ccccc3)CC2)[nH]c1=O,12.6
25,O=C(NN1C(=O)/C(=C/c2cc([N+](=O)[O-])ccc2O)SC1=S)c1ccccc1O,10.2
26,O=C(Nc1ccc(N2CCN(C(=O)c3ccccc3)CC2)c(Cl)c1)c1cccnc1,-31.2
27,Cc1cc(Cl)c(S(=O)(=O)Nc2cc(S(=O)(=O)N3CCOCC3)ccc2F)cc1OCC(N)=O,1.02
28,Cc1csc(SCC(=O)NCCc2ccc(Cl)cc2)n1,-11.4

row,SMILES,"hERG current change (%, negative = inhibition) at 10uM [%]"
1,CC(C)Cn1c(-c2cc([N+](=O)[O-])ccc2Cl)nc2c1c(=O)[nH]c(=O)n2Cc1ccccc1,-2.61
2,O=C(/C=C/c1c(F)cccc1Cl)NCc1ccco1,2.45
3,COc1ccc(CNCC(O)(c2ccccc2)c2ccc(Cl)cc2)cc1 (stereo not shown),-68.8
4,C1CCCCCC(=NNc2nn[nH]n2)CCCCC1,8.75
5,Cc1cc(C)nc(Nc2cccc3ccccc23)n1,12.3
6,COc1ccccc1NS(=O)(=O)c1ccc(NN=C2CCCCC2)c([N+](=O)[O-])c1,9.59
7,O=C(Nc1c(F)c(F)c(F)c(F)c1F)NC1CCCCC1,-11.1
8,CCOC(=O)c1sc2cccc(F)c2c1N,-11
9,CCO[C@H]1OC(C(N)=O)=C[C@@H](C)[C@@H]1CCCO,12.9
10,CNC(=S)N(C)CCc1cc2c(c(OC)c1/C=C1/C(=O)NC(=O)N(C)C1=O)OCO2,14.4
11,O=C(NCc1ccc(F)cc1)c1cc2n(n1)C(C(F)(F)F)CC(C1CC1)N2 (stereo not shown),1.61
12,CC(C)NS(=O)(=O)c1ccc(CCC(=O)NCc2ccc3c(c2)OCO3)cc1,-1.6
13,Cn1c(COc2ccccc2)nnc1SCC(=O)c1cccc([N+](=O)[O-])c1,1.08
14,Cc1cccc(OCCCCCN2CCOCC2)c1C,7.01
15,Cc1cc2ccccn2c1C(=O)c1ccc(S(=O)(=O)N(C)C)cc1,1.85
16,CCC(NC(=O)CSc1nnnn1C1CC1)c1ccc(Br)cc1 (stereo not shown),-17
17,COc1ccccc1CNc1n[nH]c(NCc2ccccc2OC)n1,0.0961
18,COc1cccc(-c2cc(C(=O)N3CCN(S(=O)(=O)c4ccccc4)CC3)[nH]n2)c1,-19.1
19,O=C(Nc1nnc(-c2ccccc2Cl)o1)c1ccc(S(=O)(=O)N2CCCCCC2)cc1,4.58
20,CCOc1cc(/C=C\[N+](=O)[O-])ccc1OCC(=O)N1CCOCC1,-50.5
21,CCN1CCN(c2cc(C)c3cc(NC(=O)c4ccncc4)ccc3n2)CC1,-21.4
22,COc1ccc(-c2cc(C(F)(F)F)nc(SCCC(=O)NCc3ccccc3)n2)cc1,-14.5
23,Cc1ccc(CNC(=O)COC(=O)c2cnccn2)cc1,-5.05
24,COc1ccccc1NC(=O)C1=C(C)Nc2nc3ccccc3n2C1c1cccs1 (stereo not shown),-9.35
25,Cc1cc(-c2ccc(C(C)C)c(S(=O)(=O)Nc3ccccn3)c2)on1,10.6
26,CCOC(=O)N1CCC(N2C(=O)c3ccc(C(=O)NCCC(C)C)cc3C2=O)CC1,-7.32
27,S=C(NCCNC(=S)Nc1ccccc1Cl)Nc1ccccc1Cl,6.08
